# Experimental data taken from the BET-seq Pho4 binding data (Le et al. 2018).
# The list shows a part of the results. These are noisy estimates, calculated here from bound and input reads.
# Biological target: T1, Pho4 (S. cerevisiae) (UniProt P07270)
# T1 sequence: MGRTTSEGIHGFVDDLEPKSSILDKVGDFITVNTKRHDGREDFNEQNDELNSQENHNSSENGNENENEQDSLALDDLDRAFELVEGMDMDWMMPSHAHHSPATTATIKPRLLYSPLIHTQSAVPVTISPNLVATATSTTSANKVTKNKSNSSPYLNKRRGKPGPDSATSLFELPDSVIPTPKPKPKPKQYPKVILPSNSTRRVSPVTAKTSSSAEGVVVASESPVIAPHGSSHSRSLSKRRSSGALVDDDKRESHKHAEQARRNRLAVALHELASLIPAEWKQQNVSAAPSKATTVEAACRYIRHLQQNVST
# Test: relative binding free energy (BET-seq); higher = weaker binding
# Settings: reference: library average
row,Sequence,relative binding free energy
1,TGTGGCACGTGGATTT,0.08 kcal/mol
2,GGGAACACGTGGGGCC,-0.01 kcal/mol
3,GGTCGCACGTGGTCTG,-0.16 kcal/mol
4,GGTCACACGTGTGTAG,0.03 kcal/mol
5,TCTTGCACGTGTTAGA,0.08 kcal/mol
6,GTTTTCACGTGAAATT,0.23 kcal/mol
7,AGTGGCACGTGGGCTC,-0.21 kcal/mol
8,GTACTCACGTGCTGGT,0.19 kcal/mol
9,CGTAGCACGTGGTGGA,-0.03 kcal/mol
10,TAATTCACGTGAGCTG,0.33 kcal/mol
11,TGACGCACGTGAAGGG,0.26 kcal/mol
12,TATCGCACGTGTTTGG,-0.06 kcal/mol
13,TGTGCCACGTGTGTCA,-0.03 kcal/mol
14,GGAATCACGTGTTTTT,0.3 kcal/mol
15,GAAGTCACGTGGGTCT,-0.02 kcal/mol
16,CTAAGCACGTGGTTTG,-0.16 kcal/mol
17,GTATGCACGTGGACGT,0.03 kcal/mol
18,GGTCCCACGTGAAGGG,0.24 kcal/mol
19,TCGTTCACGTGGGGTC,0.12 kcal/mol
20,GATGGCACGTGAGAGT,0.28 kcal/mol
21,GGCTTCACGTGTTATT,0.32 kcal/mol
22,AGTAACACGTGTTGCG,0.04 kcal/mol
23,GAGATCACGTGGTGTC,0.18 kcal/mol

row,Sequence,relative binding free energy
1,GGTCTCACGTGCTGGG,0.29 kcal/mol
2,TGATACACGTGGATTA,0.17 kcal/mol
3,ATTAACACGTGCGGTG,-0.01 kcal/mol
4,TTTTTCACGTGTTGGT,0.42 kcal/mol
5,TCGTCCACGTGGGGTG,-0.21 kcal/mol
6,GTAGCCACGTGGGGAT,-0.23 kcal/mol
7,GTTTGCACGTGGGTGT,-0.05 kcal/mol
8,CTTATCACGTGAGAGT,0.24 kcal/mol
9,GTACTCACGTGTAGGT,0.11 kcal/mol
10,GTGGGCACGTGGATGG,-0.01 kcal/mol
11,TATTTCACGTGTTGGA,0.27 kcal/mol
12,GAGGCCACGTGTGGGC,0.14 kcal/mol
13,TCTTGCACGTGGCTAT,0.03 kcal/mol
14,GGAGCCACGTGTATGG,0.11 kcal/mol
15,GGGACCACGTGTGGGG,-0.01 kcal/mol
16,CGTTACACGTGGAGGG,0.03 kcal/mol
17,TGGTACACGTGCGGGG,0.1 kcal/mol
18,TGAAGCACGTGAGTGA,0.09 kcal/mol
19,AAGGGCACGTGGTAAG,-0.1 kcal/mol
20,TTTAGCACGTGTCTGG,-0.03 kcal/mol
21,ACATTCACGTGAAGGG,0.51 kcal/mol
22,ATGTTCACGTGTTTAG,0.25 kcal/mol
23,CTGTTCACGTGGTAAG,0.01 kcal/mol

row,Sequence,relative binding free energy
1,TTGGTCACGTGGGTAC,-0.18 kcal/mol
2,TTTATCACGTGGATAG,0.13 kcal/mol
3,ATGGTCACGTGCGGAA,0.14 kcal/mol
4,GGTGACACGTGTGAGC,0.15 kcal/mol
5,TGCTACACGTGCTGGT,-0.02 kcal/mol
6,GGAATCACGTGGACGG,0.18 kcal/mol
7,TCAGACACGTGGTGTT,-0.04 kcal/mol
8,GTAGGCACGTGCTTAT,-0.04 kcal/mol
9,TGTGGCACGTGATCTT,-0.01 kcal/mol
10,TTGGGCACGTGCCTGT,-0.19 kcal/mol
11,GATGTCACGTGGCGTT,0.21 kcal/mol
12,GTTGACACGTGGGGAC,-0.07 kcal/mol
13,GAGATCACGTGTGATG,0.29 kcal/mol
14,GATTTCACGTGTGGGA,0.3 kcal/mol
15,TAAAACACGTGGTGTA,0.02 kcal/mol
16,TGGGCCACGTGGAGAG,-0.07 kcal/mol
17,TAAGACACGTGAGGTT,0.41 kcal/mol
18,TTGACCACGTGTTTTG,-0.08 kcal/mol
19,ACTAGCACGTGGTGTG,-0.08 kcal/mol
20,CGGTGCACGTGTAGGT,-0.14 kcal/mol
21,ATAATCACGTGAGGCT,0.25 kcal/mol
22,AGGGGCACGTGTGCTA,-0.12 kcal/mol
23,CGAGACACGTGAAGTG,0.32 kcal/mol

row,Sequence,relative binding free energy
1,ACGTGCACGTGTGGTG,-0.01 kcal/mol
2,AGTTTCACGTGGAGCC,0.39 kcal/mol
3,TAGCGCACGTGGGGCT,-0.36 kcal/mol
4,TTATCCACGTGGTTTT,0.09 kcal/mol
5,GCAGTCACGTGCGTGG,0.02 kcal/mol
6,AGTGTCACGTGGTACT,-0.14 kcal/mol
7,AAGAGCACGTGGTTGT,-0.21 kcal/mol
8,TTTTTCACGTGAGCTT,0.31 kcal/mol
9,CTGGTCACGTGTCTGT,0.2 kcal/mol
10,AATCTCACGTGATTTG,0.47 kcal/mol
11,GTTTGCACGTGGCATG,0.07 kcal/mol
12,TATAACACGTGGGGCA,0.03 kcal/mol
13,ATTAACACGTGTTAAG,-0.01 kcal/mol
14,TTAGACACGTGTGGGC,0.15 kcal/mol
15,CATTGCACGTGGCTGG,-0.01 kcal/mol
16,GGGGCCACGTGTCGGC,0.09 kcal/mol
17,TGGTACACGTGAGTAT,0.35 kcal/mol
18,GGGGACACGTGCTTTG,0.04 kcal/mol
19,AGGTGCACGTGGAGCT,-0.07 kcal/mol
20,GTAATCACGTGGTAGG,0.23 kcal/mol
21,GGCTACACGTGTTAGG,0.09 kcal/mol
22,ACTTTCACGTGATAGG,0.28 kcal/mol
23,TATATCACGTGGGTTC,0.09 kcal/mol

row,Sequence,relative binding free energy
1,GGCGTCACGTGGGGGG,-0.01 kcal/mol
2,GAAGGCACGTGTGGGC,-0.14 kcal/mol
3,AAATTCACGTGTTGGT,0.27 kcal/mol
4,TGAGGCACGTGTGGTC,-0.03 kcal/mol
5,GGGAGCACGTGATTGG,0.15 kcal/mol
6,GGAAACACGTGATGGT,0.27 kcal/mol
7,TTGAACACGTGGTGGG,0 kcal/mol
8,AGTTTCACGTGATTAG,0.18 kcal/mol
9,AGTTACACGTGCTTTG,0.14 kcal/mol
10,TCTCTCACGTGTTAGT,0.34 kcal/mol
11,TTTGGCACGTGTGTGG,-0.02 kcal/mol
12,TAGTACACGTGTGGCA,0.07 kcal/mol
13,AGAGTCACGTGTATCG,0.27 kcal/mol
14,ATTGTCACGTGGGTTA,-0.02 kcal/mol
15,TCGTTCACGTGAGGTA,0.44 kcal/mol
16,GGTTACACGTGTGGTG,0.25 kcal/mol
17,TGTGTCACGTGTCACG,0.11 kcal/mol
18,TGGGTCACGTGCGTTA,-0.07 kcal/mol
19,TGTTTCACGTGGCCTT,0.08 kcal/mol
20,CGGGGCACGTGGTGAC,-0.25 kcal/mol
21,AGTCTCACGTGCTTGG,0.27 kcal/mol
22,ATCTACACGTGTGGTT,0.14 kcal/mol
23,GGGGGCACGTGCGTTA,-0.18 kcal/mol
